The supplement of paper PMC3334620
In all, about 33,000 sequences were measured (“E-score (-0.5 to 0.5)”: median about -0.054, highest 2% from about 0.35 on). Some of the results follow.

What follows are sequences tested against T1, Stb5 (UniProt P38699) (assay: PBM E-score (8-mer binding enrichment) (E-score (-0.5 to 0.5)); higher = stronger / more preferred TF binding; most listed sequences are background and not binding sites). Settings: protein concentration: 200 nM; construct: GST-full length.
T1 sequence: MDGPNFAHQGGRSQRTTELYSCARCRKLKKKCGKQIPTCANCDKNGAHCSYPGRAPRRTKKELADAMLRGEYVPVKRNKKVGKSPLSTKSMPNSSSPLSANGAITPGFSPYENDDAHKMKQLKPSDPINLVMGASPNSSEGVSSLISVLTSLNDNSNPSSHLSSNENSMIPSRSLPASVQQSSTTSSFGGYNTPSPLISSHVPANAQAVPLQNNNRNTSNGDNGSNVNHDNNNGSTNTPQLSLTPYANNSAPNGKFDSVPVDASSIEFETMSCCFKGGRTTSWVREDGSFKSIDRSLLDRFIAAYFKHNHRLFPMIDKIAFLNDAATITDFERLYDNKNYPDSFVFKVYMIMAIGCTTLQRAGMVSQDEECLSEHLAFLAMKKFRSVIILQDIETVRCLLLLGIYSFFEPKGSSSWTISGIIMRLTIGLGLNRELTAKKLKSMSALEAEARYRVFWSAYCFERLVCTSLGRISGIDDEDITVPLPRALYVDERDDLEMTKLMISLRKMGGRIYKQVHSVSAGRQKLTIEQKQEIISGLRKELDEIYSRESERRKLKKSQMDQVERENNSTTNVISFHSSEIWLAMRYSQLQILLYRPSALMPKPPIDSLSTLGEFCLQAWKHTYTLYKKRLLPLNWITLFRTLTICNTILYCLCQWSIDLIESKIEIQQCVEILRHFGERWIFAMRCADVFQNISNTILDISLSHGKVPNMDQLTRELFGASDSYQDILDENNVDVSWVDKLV
In short: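 Each ungapped eight-base word and its reverse complement, pooled, received an E-score from the Universal PBM Analysis Suite. Underlying scans, normalised with masliner, recorded fluorescent anti-GST bound to GST-tagged yeast transcription factors. These were applied at about 100-200 nM to universal all-10-mer Agilent arrays double-stranded by primer extension.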

Sequence | PBM E-score
CATCGTAC | -0.122
TACGTAAA | -0.301
CACCTTAA | -0.0239
GTGTTGGA | -0.0809
CGGGTCAA | 0.271
TGGTCAAA | -0.217
CCAGCCCC | -0.0874
AATTATGG | -0.044
CAATAGAC | -0.153
GAGAGGGA | -0.339
ATCCCTAC | -0.0562
AGCTAACA | -0.194
AGGCCAAT | -0.244
CCGTTAGG | 0.163
ACATCCCA | -0.258
GACGCCCA | -0.243
AACTAAGG | -0.132
AAGGCGTG | -0.216
GGCTTTGA | 0.0104
CGACCCTC | -0.0291
GAGAAGCA | -0.18
CTAATAAA | -0.0169
AGGCGAAC | -0.0434
ACATGCCC | -0.14
AGGTCTAA | -0.0469

Sequence | PBM E-score
ACAATCGC | 0.0633
ACCACGGT | 0.00322
CCCGTAGA | 0.144
AAATATGT | 0.0169
CAAGTCCG | 0.356
AAAATACT | -0.0258
ATATTCAG | -0.00061
CCCACCAG | -0.207
ATGAGTCA | -0.321
AATCAGGG | -0.278
ACGGGACG | 0.0842
GTCAGCGA | -0.189
GCACCCCA | 0.103
ATGAATTG | -0.00393
AAGTTAGG | -0.0532
ACTCCATC | 0.112
AGTGTCAG | -0.263
CTTAGGGA | -0.201
ACTCGTCA | -0.163
ACTTCCCC | -0.0637
TTCGACAA | -0.274
CTAGCACA | 0.0238
ACGTGCAT | -0.334
CGAGTAAC | 0.0469
CCCCAACG | 0.013

Sequence | PBM E-score
GTGTATCA | -0.0275
GGACCCTA | -0.012
GCTGCGGA | 0.277
CAGCACAC | -0.183
ACAACAAG | -0.226
AAGGGGGG | -0.361
ACTAGGGC | -0.0176
ATCCAAAG | -0.19
CGCCGCCG | 0.369
GTCCTAAC | 0.0214
CACAGCGC | 0.0388
CAATCGTA | -0.225
CGGTCTAG | 0.174
GGAGGGCA | -0.0956
CAATTTCA | -0.0803
AAAATACG | 0.00986
GACTCTAC | -0.136
CAGTACTG | -0.0684
ATGGATGC | -0.22
ATTAACCG | 0.257
TACTGGAA | -0.113
CACTGCAC | -0.172
AGTTCTTG | -0.195
AAGATCGT | -0.0744
ATGGTAAA | -0.215

Sequence | PBM E-score
CGGAATAA | 0.132
CTTTTTAC | 0.145
CAGGGTCG | 0.211
AAAGATCC | 0.154
AGGTTCCG | 0.0658
CTCTTTTA | -0.218
TGCACAAA | -0.229
AGCCATAC | -0.269
CCCGGATC | 0.194
ACCAGTTA | -0.288
CGCTGTCA | 0.274
CCGTTTAA | 0.254
AGTGTCTC | -0.155
AATCCTCG | -0.226
GATGTTGC | 0.021
ACAGACTC | -0.203
ATATGGCA | -0.0337
CACCCACG | -0.0363
GCTGCCAA | -0.0125
CACACAGG | -0.233
AAATCGTA | -0.131
ATGGCAAC | -0.184
GAATGGTA | -0.208
GTGTGTGA | -0.132
GTTCTTCA | -0.229

Sequence | PBM E-score
CATTGAGA | -0.116
GGATTCCC | 0.0375
GGGTTAAC | 0.164
CAGCGTCA | 0.0486
CCAGGTCA | -0.121
AGCAAACA | -0.217
AATCTGAT | -0.0432
TGGCTCAA | -0.203
CCTCTTAC | -0.189
CGTTCAAA | 0.0863
CATTGCGA | -0.222
AGTTCCTG | -0.17
GAAATGAA | 0.0353
CAGAATGA | -0.196
ATCCTTGC | -0.114
AACCATTG | -0.173
CCAAAGCA | -0.135
AATTACCC | 0.0888
CCAGAACC | -0.206
GCTCTGCC | -0.165
CCCTAGCA | -0.0317
GGTTTGCA | 0.0951
AGCTTGGG | -0.0117
CGACGAAG | 0.0563
GTGTAGAA | -0.176

Sequence | PBM E-score
CTATAGAC | 0.0193
ACTACCTA | -0.0759
ATCACTTC | -0.165
CCCTTAAC | 0.0588
AGACCCTC | -0.0954
CGCCTTAA | 0.0389
CGTGGAAG | 0.101
GGGGGACA | -0.187
GGACCTAA | 0.365
GGTGTGGA | 0.192
CATTCACG | -0.00633
AGAGGTCA | -0.139
CGCCGTGA | 0.252
CACGGGGC | 0.221
ATATAATA | 0.048
CACGCGTC | 0.0362
GGGTAACA | 0.0577
CGCCATGC | 0.0141
TGCAACCA | -0.213
GTGGTGAA | -0.0313
CCTGGACA | -0.196
CCAGGCAA | -0.231
CTGCACCA | -0.158
CCTAGTAC | -0.15
AGCGAGAC | -0.0631

Sequence | PBM E-score
CTTTTGTA | -0.0255
ACGACGGG | 0.241
CTCATGCC | -0.103
CAGTAACC | 0.0517
ATTCCCCA | -0.226
GGTTATCA | -0.198
AACTTTGT | -0.107
CTTCTGGC | -0.191
CACGGGCA | 0.123
CAAGAGTA | -0.108
CCGACTCA | 0.259
AGTTTGTA | 0.0191
CGATCGGA | 0.315
GAGACCAC | -0.212
ATACCAGC | 0.0806
AGGTTGAT | -0.262
ATATCGAC | 0.123
CGTATTCA | 0.0341
CGATTACG | -0.0146
ATTTGAAG | 0.0267
GACCTACC | 0.11
CGCGACTC | -0.0784
